From the supplement of paper PMC12632987
Over roughly 2,300 sequences, “median log2 fold change of GCK-ALFA target abundance (FLAG IP / Myc IP barcode read proportion)” has its median near 0.095; the lowest 2% begin near -0.47. The list shows a part of the results.

B1: LC3A_3_1737 (protein)
chain: MEEKLEEVRERLEELGFSPEVIEAALRVAEALLERGFEEAVEVLLEELERLKDLPDEILLAMLEDILAYVESNDVSEEEVIEKIREEARIARNEAEIEEL
B2: LC3A_40_1915 (protein)
chain: MYTLSIDILADDPAATAAALDAAIEKIKAKIKSEEGEKIIAAFDEMRAQAAAGQPAEATIEGISLEEANTVVQILEEAEAALHAAGVKVAALISIEEEEE
B3: LC3A_free_39_2218 (protein)
chain: MEEEIEKLIKEIAEESGLDYEEVKKKLEEIKEVGGLSNEQMLEIAKALLEAVKAGADAKEILEEMLKIAKELTAKGKSPEEIAKEILQTIEDYRNLVPLE
B4: LC3A_132_282 (protein)
chain: GEEEAEKVIKEIKKLVEEAKENADDEEKVRELLEKLRKFLEKVAKEKSPEVVAKAFKVAADELDELSRLLAEKGKEELALEADSLAIEAASLSDRAEKKI
B5: LC3A_28_967 (protein)
chain: SRLEESLEKALKEAKEAAKKGEAKTIVIKVPGDTTEEDVEKVIEALEEIAEILKDVKGAAILIDVEPGVSQEHIDKLADAAEEIEEKYPNVTVIIALEEE
B6: LC3A_17_561 (protein)
chain: MEEIKKEVEELLEELEEAVEEAKELFPEKEEELEEKLEEIKELIKEGKLKEALEKAAELADEIADLAEEGEEEDPERMSLLLMDANGIEIEAIGLLLKLE
B7: LC3A_3_1481 (protein)
chain: MEEELEKAVAALKAAGKSQETIDALKKAVNALIEKGYENAAKVLIDEMLKHIDLPDEDLLAAAELALELVETSSLDEEEIAARIRQIFDDVAGIEALDEE
B8: LC3A_147_476 (protein)
chain: YKVEVDIDILTKDAEEEIKEELKKIVEELKEKGYKVELEIEEEKLEDGSTYIHAKITIEAETLEEAKEAANLVIDKLDEMEEKLKDKILGSLISVEITEK
B9: LC3A_127_175 (protein)
chain: ELEELLKKLLEVAEELSEELSKPDADLEEIERLVKEAIELAKKALELDPRAEPILEAAEEIKKQLEQYKKAPEEKKEELREHMEMLAESLIIEIESLLLR
B10: LC3A_28_837 (protein)
chain: SHAEEEIERAKAALRAAREAGEDVLVEIRIRASMTVEEAQAIMDALEEEVAKLDPSVKVDILVLAEEPLSPEVLQTIADRADAIEAAHPNVTVVIALPEE
B11: LC3A_147_416 (protein)
chain: MTVEVDIDILGKLSEEEVEELVERLKAVAEAHGGKVEAEVEIEELPGGERFVSIKLTVTGIAKEKAQELSNDLIDTVDEFLEENKDKVKGALISVETIEE
B12: LC3A_3_1374 (protein)
chain: TEEKIAELLAFLAAQGKSAETLAAVEAAARALAAKGYEKALETFIELMKELADVPDELLLWFAEEVLRAVTEEDLTEEELIEFIKNEATVVRNEAEIEEL
B13: LC3A_28_883 (protein)
chain: SEALESARAALAEVEAAVAAGNTEPLVLEVVAPSTEEDAEKFLELLEELAAAASKLPGVTIIIDIDESVSEELRNRIIDKADELEEKYPNVTIIIALPES
B14: LC3A_28_1017 (protein)
chain: SALEKQIAEIRKEAEAAIAAGEDVVLTLKITGDMSLEEVKEAMEKVSEIVLEAAKKGKVDLVIDLDADVSQEKLDVVLEKAEEIEEKAPNVNVIIALEER
B15: LC3A_3_1874 (protein)
chain: MEEEIEKTLKELKEAGASEETIEKFKEVAEKLKERGYEEALKTLIEKVRELIPTSDEILLDFLEEVLEVLETEDLSEEELIERINEIAELALNEAEIEEL
B16: LC3A_132_329 (protein)
chain: EEEKYAELTAAIDAKLDAALANVTDLAKVEALAEETRALLERAEKEISPEQAAELYDRAADLYDKVADAAEAAGQEDVALLASGMAVEAAARSIRAEEKI
B17: LC3A_3_1887 (protein)
chain: MDEKIEETLKRLKEAGASEETLEAFKRVVEKLKARGWDEALNTLIEKVDELLDAPDEVRLAFLQDVLALLDTPGVSEEELIAGINELATLAKNEAEIIEL
B18: LC3A_3_1431 (protein)
chain: MEELLERARRVLEEAGFDEETIEAVLELLELALKAGEVEEAERLIEVLEESKNVDSEEVLEAAREALRRIREEGVPIKEALERFIEELRVLRLEEEIEEL
B19: LC3A_127_208 (protein)
chain: KERELLLEAERLAEELLEALEEIPEKGEEARKRAIELAEELIKLLEKIPSLADAKKDAEQLLKQLKELEKLDEAEREEKVEHLEMLADGILIEIESELLK
B20: LC3A_28_1304 (protein)
chain: SSLEKKFEEAIKKIEEAAKKGEPVVVTIDITAEEAEKELEKILELLEKLGEVASKAPGAVIIIDLDSKVKPENRKKIMDKAEEIEEKYPNVTVIIAIEDD
B21: LC3A_59_2021 (protein)
chain: SPELEEARERLLAARDDKEKLAELITEWLIRHRDDPELLEELKELIVEVLVESGILSRELAEEMLEEMIEIIEEEEDEEEARKKMKEVFRTALNEEEIIE
B22: LC3A_62_2050 (protein)
chain: MYRAEIDVDLLFDTEEKAKKAAEEIKEAAEEIKEKYPEVEVEVEIEIDGTFLDVKIILKAPNKELLEKAVNDLIDKIEEIAEKYGAKAILISVDIEEVEE
B23: LC3A_28_1023 (protein)
chain: SAAEEKVKAAREEAKEQKAKGEPIFIEISVDETTTLEDAKTIVKGIEEIAEEFKDEKGVSIIIDVDAGVSQEVIDTLADGAEKIEKKYPNVSVIIALEER
B24: LC3A_28_758 (protein)
chain: MDVAEIVAAAIAEAKAAAAAGEEAVIRIRVPAGATQEDIDKVIAGLEEIAEIRKDMKSTSIVIDIEAGVSQENIDKLIDAGEAIEKKYPNITVIFALDED
B25: LC3A_59_2011 (protein)
chain: MEEVKKYVDEILTKYDDPEAFYKAVKEAYEKLKEKYSDEELLELVTKVAEERIKKGEDPKKMQAIVDSFKAVIEIKDEEKQKEEIKLILLESEIEEIDEE
B26: LC3A_28_940 (protein)
chain: ATTAENLAAALAEAEAAAAAGEPVVVTLTLRGTDTQEDVDRLLATLRRIAELLKDVPGAAIVVDVEAGVPQEHIDRVADEGDAIEERYPGITVIIALDED
B27: LC3A_28_1166 (protein)
chain: SPLEESIKEALAEAKKAAEKKEPTVITIHVPGGATEEEVERVIEAIEEIAELLKDIPGSAIIIDVDSGVPQEHLDRIIDKAEEVEKKYPNISVIIALDEE
B28: LC3A_28_1101 (protein)
chain: SKLEENLEKAIKEAKEAAAKGEEALIEINVGDDATEEDIELLIKTIEEIAEINKDLPSLTIVINLDGEKAREKADIISKEADKLEKKYPNLTIIIALPED
B29: LC3A_28_1266 (protein)
chain: SAIDEALAAFKAAAEAAKAAGKPSLLELEVPGDTTAEDVDRINATMKEEAEKLKDIKGTAILISIDSDLAQENRDKLIDTAEEIEKKNPNITVIIAIEDE

target: MAP1LC3A, Q9H492; test: median log2 fold change of GCK-ALFA target abundance (FLAG IP / Myc IP barcode read proportion) (log2 ratio); each designed protein is fused to an ALFA-tag nanobody in HEK293 cells to bring the named protein to FLAG-tagged glucokinase (GCK); Myc marks an untargeted standard; higher = target protein stabilised (more abundant); conditions: target protein: 3xFLAG-MCP-GCK-ALFA reporter; HEK293 landing pad (RPLP)
How it was run: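 Binders fused to an ALFA nanobody were recombined as a library into HEK293 landing-pad cells, which were induced with 2 μg mL^−1 doxycycline and then transfected to express a FLAG-tagged target and a Myc-tagged standard. After 48 h, circular RNA barcodes recovered by anti-FLAG and anti-Myc immunoprecipitation of lysates were reverse transcribed, amplified and sequenced. Each binder's target abundance is the median log2 ratio of FLAG to Myc barcode read proportions, from barcodes present at ≥10^−7 in both replicates, binders carrying ≥3 barcodes per replicate, a 10^−6 pseudocount and pooled replicates.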

B1 and B2 are within 0.2 log units of each other in “median log2 fold change” value: 0.247 for the first, 0.241 for the second.

B3 and B4 are within 0.2 log units of each other in “median log2 fold change” value: 0.239 for the first, 0.221 for the second.

First: B5
Second: B6
The “median log2 fold change” value of the first is higher: 0.434 for the first, -0.157 for the second.

First: B7
Second: B8
The “median log2 fold change” value of the first is higher: 0.184 for the first, -0.391 for the second.

B9 and B10 are within 0.2 log units of each other in “median log2 fold change” value: 0.0944 for the first, 0.0521 for the second.

First: B11
Second: B12
The “median log2 fold change” value of the first is lower: -0.319 for the first, 0.11 for the second.

B13 and B14 are within 0.2 log units of each other in “median log2 fold change” value: -0.252 for the first, -0.172 for the second.

First: B15
Second: B16
The “median log2 fold change” value of the first is lower: -0.0677 for the first, 0.21 for the second.

B17 and B18 are within 0.2 log units of each other in “median log2 fold change” value: 0.21 for the first, 0.119 for the second.

Compared with B19, B20 is higher in “median log2 fold change” value: 0.0328 for the first, 0.299 for the second.

B21 and B22 are within 0.2 log units of each other in “median log2 fold change” value: 0.191 for the first, 0.0577 for the second.

Going from B23 to B24, the “median log2 fold change” value rises from -0.231 to 0.124.

Going from B25 to B26, the “median log2 fold change” value falls from 0.268 to 0.0182.

Going from B27 to B28, the “median log2 fold change” value rises from -0.31 to 0.374.

With B29 the “median log2 fold change” value was -0.0182.
